Measurements taken from PubChem BioAssay (Tox21).
Where “and” joins values, the source holds several entries; their conditions need not be identical. Equal values may be shown once. The shares of active, inactive and inconclusive entries below differ from those in the screen. Where the call is inconclusive, the potency comes from a doubtful curve fit. Calls of active or inactive are those of the source. Calls follow the shape of the dose curve; as a rule, active = well fitted inhibition curve with a large enough effect in the signal ratio in the repeat runs (not every such curve was filed as active); inconclusive = weak or mixed curves, or effect the other way; inactive = no such curve, though single readings can be large or run the other way; the % refers to the signal ratio.

Target: Peroxisome proliferator-activated receptor delta (Homo sapiens) (UniProt Q03181)
Assay: qHTS assay to identify small molecule antagonists of the peroxisome proliferator-activated receptor delta (PPARd) signaling pathway (AID 743215);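 also: cells stimulated with agonist L165041 at 300 nM final during compound exposure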
Conditions: HEK293H PPARd-UAS-bla, beta-lactamase FRET ratio, antagonist, 17 h; ratio activity, negative = inhibition: at 62 µM (top of the series) unless noted
How it was run: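 Cells: HEK293H with a UAS-driven beta-lactamase reporter responsive to PPARd. Compounds were co-added with L165041 (300 nM, final) and incubated 17 h at 37 C before a 2 h room-temperature FRET substrate step and fluorescence reading.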
% is scaled to controls: 0 for no effect and ±100 for the full control effect; potency is read from the fitted curve at half-maximal effect; tags tell the direction and shape of the fitted curve or compound fluorescence and quenching.

UniProt Q03181, sequence (Q03181 whole entry, looked up): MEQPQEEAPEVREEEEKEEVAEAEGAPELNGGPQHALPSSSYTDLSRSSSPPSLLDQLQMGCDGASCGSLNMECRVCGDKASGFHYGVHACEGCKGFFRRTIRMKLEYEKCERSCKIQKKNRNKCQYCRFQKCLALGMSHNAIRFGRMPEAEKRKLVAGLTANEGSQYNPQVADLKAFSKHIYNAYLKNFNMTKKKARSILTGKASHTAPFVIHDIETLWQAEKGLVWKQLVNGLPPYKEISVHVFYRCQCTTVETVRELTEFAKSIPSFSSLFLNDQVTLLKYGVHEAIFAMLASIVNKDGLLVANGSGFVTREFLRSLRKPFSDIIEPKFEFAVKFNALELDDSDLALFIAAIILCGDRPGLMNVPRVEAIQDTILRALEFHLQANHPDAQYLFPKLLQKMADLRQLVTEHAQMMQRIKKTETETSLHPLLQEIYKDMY

SMILES	Potency	ratio activity, negative = inhibition
CN(C)[C@@H]1C(=O)C(C(N)=O)=C(O)[C@@]2(O)C(=O)C3=C(O)c4c(O)ccc(Cl)c4[C@@](C)(O)[C@H]3C[C@@H]12	inconclusive: 50 µM [single point]	–
COc1ccc(/C(=C/C(=O)N2CCOCC2)c2ccc(Cl)cc2)cc1OC	–	inconclusive: 1.58%
CCN1CCC2(CC1)COc1cc3c(cc12)N(C(=O)c1ccc(-c2ccc(-c4nnc(C)o4)cc2C)cc1)CC3	active: 18 µM	–
Cn1cc(C2=C(c3cn(C4CCN(Cc5ccccn5)CC4)c4ccccc34)C(=O)NC2=O)c2ccccc21	–	inactive: -19%
[O]=[Cr](=[O])([OH])[O][Cr](=[O])(=[O])[OH]	inconclusive: 55.5 µM and inconclusive: 61.5 µM	–
N#Cc1c2ccccc2cc2ccccc12	inconclusive: 8.69 µM [fluorescent, full curve, poor fit]	–
C[C@@H]1O[C@@H](O[C@@H]2C=C3CC[C@@H]4[C@H](CC[C@]5(C)[C@@H](c6ccc(=O)oc6)CC[C@]45O)[C@@]3(C)CC2)[C@H](O)[C@H](O)[C@H]1O	inconclusive: 0.211 µM [rising, full curve]	–
ClC1=C(Cl)[C@]2(Cl)[C@@H]3[C@H]4C[C@H]([C@@H]5O[C@H]45)[C@@H]3[C@@]1(Cl)C2(Cl)Cl	inconclusive: 54.9 µM	–
CC(C)C(Nc1ccc(C(F)(F)F)cc1Cl)C(=O)OC(C#N)c1cccc(Oc2ccccc2)c1 (centres undefined)	–	inactive: -3.44% [at 80.4 µM]
c1ccc2c(c1)cc1ccc3cccc4ccc2c1c34	inconclusive: 49.9 µM [fluorescent, partial curve]	–
CN(C)CCc1c[nH]c2ccc(O)cc12	–	inactive: -1.87% [at 80.4 µM]
CC(C)[C@H](C(=O)OC(C#N)c1cccc(Oc2ccccc2)c1)c1ccc(OC(F)F)cc1 (some centres undefined)	–	inconclusive: 41.2%
O=C(O)C(F)(F)C(F)(F)C(F)(F)C(F)(F)C(F)(F)C(F)(F)C(F)(F)F	inconclusive: 13.8 µM [inhibitor, partial curve, poor fit]	inconclusive: -39.6%
FC(F)C(F)(F)OCC(Cn1cncn1)c1ccc(Cl)cc1Cl (centres undefined)	–	inconclusive: -57.6%
CO/N=C(/C1=NOCCO1)c1ccccc1Oc1ncnc(Oc2ccccc2Cl)c1F	inconclusive: 54.9 µM	–
N#Cc1sc2c(=O)c3ccccc3c(=O)c=2sc1C#N	inconclusive: 6.92 µM [full curve]	–
CCC(C)Br (centres undefined)	–	inactive: -0.924% [at 80.4 µM]
CC(C)[C@@H](Nc1ccc(C(F)(F)F)cc1Cl)C(=O)OC(C#N)c1cccc(Oc2ccccc2)c1 (some centres undefined)	–	inconclusive: -13.8%
